Source: article PMC4336329 (PLoS ONE, 2015)
Hit rate of the full screen: of about 310,000 compounds, about 2,200 (0.71%) showed an effect of 50% or more. The effect is printed as a negative number. This is one part of the list.

Target: human ether-à-go-go-related gene (hERG) potassium channel (human, UniProt Q12809)
Experiment: primary screen, population patch clamp on CHO cells stably expressing hERG

Chain of human ether-à-go-go-related gene (hERG) potassium channel (Q12809 whole entry, looked up): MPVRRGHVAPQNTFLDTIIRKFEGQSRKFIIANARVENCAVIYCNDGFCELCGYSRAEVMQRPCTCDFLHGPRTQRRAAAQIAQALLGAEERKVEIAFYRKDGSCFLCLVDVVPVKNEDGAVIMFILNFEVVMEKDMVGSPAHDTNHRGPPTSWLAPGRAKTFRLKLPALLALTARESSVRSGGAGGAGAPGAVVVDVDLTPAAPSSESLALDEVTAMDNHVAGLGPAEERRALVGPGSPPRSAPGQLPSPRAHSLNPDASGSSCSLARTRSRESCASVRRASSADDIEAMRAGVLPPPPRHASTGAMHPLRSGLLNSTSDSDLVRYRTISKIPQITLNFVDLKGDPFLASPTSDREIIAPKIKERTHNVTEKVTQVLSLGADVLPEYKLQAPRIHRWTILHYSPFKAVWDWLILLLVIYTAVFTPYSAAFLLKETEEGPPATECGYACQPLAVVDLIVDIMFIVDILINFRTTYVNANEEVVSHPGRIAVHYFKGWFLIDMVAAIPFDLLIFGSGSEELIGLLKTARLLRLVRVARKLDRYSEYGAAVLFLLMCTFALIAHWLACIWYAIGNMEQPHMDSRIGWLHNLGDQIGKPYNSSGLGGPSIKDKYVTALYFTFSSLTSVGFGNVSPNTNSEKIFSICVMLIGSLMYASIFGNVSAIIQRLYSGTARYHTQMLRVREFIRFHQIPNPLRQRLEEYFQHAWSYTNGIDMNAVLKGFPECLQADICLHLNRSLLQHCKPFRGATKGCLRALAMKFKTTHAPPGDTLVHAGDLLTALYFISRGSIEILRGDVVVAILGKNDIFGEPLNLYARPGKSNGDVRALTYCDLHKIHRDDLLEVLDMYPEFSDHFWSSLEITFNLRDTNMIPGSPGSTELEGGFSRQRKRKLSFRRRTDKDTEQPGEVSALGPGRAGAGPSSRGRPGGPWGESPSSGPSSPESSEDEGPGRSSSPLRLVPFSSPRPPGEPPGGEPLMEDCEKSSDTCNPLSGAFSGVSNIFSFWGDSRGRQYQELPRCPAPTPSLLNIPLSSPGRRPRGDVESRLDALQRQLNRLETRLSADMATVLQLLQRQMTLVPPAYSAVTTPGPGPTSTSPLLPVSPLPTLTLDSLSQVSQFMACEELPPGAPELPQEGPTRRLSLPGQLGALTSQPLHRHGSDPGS

Structure (SMILES) | hERG current change (%, negative = inhibition) at 1uM [%]
CCCOC1CCCN(C(=O)CCc2nnc(CCCCc3ccccc3)o2)C1 (centres unmarked) | 6.37
O=c1[nH]c2c(cnn2-c2ccc(Cl)cc2)c(=O)n1-c1cccc(Cl)c1 | 18.7
O=C(NCc1ccccc1Cl)c1cc2c(s1)CS(=O)(=O)C2 | 13.2
O=C(COc1ccccc1)Nc1ccc2c(c1)Cc1cc(NC(=O)COc3ccccc3)ccc1-2 | 9.04
CCC1CCCCN1CCCNC(=O)c1ccc2c(c1)c(C)c(C)n2C (centres unmarked) | 1.19
CCc1nc(OCCN(CC)CC)c2oc3ccccc3c2n1.Cl | -24.2
COc1ccc(N=C2S/C(=C\c3ccc(Cl)c([N+](=O)[O-])c3)C(=O)N2CCN(C)C)cc1.Cl | 8.62
OCC[C@@H]1C[C@@H](O)[C@H](O)[C@@]2(CCc3ccccc3O2)O1 | 17.1
O=C(CN1C(=O)c2ccccc2C1=O)OCCOCCN=C1NS(=O)(=O)c2ccccc21 | 15.3
CCN(CC)c1nc(C)c2c(c1C#N)CC(C)(C)OC2 | 12.5
COC/C=C/C1=CC2=CC(=O)C(C)(OC(=O)c3cnc4ccccc4n3)C(=O)C2=CN1CCOC (centres unmarked) | 12.8
CCOc1ccc2nc(N(CCCN(C)C)C(=O)c3ccc(S(=O)(=O)N4CCc5ccccc5C4)cc3)sc2c1.Cl | -2.25
CCOc1nc(SCCOc2ccc(C)cc2)nc(N(C)C)n1 | 2.68
COc1ccc(-c2c(=O)n(OCc3ccccc3[N+](=O)[O-])c3ccccc3[n+]2[O-])c(OC)c1 | 8.63
CCN(CC(=O)Nc1ccc(NC(C)=O)cc1)C(=O)/C=C/c1cn(-c2ccccc2)nc1-c1cccs1 | 2.79
CN1CCN(C2=Nc3ccccc3Oc3ccc(Cl)cc32)CC1.O=C(O)CCC(=O)O | 11.6
CC1Cc2c([nH]c3ccccc23)C2c3ccccc3CN12 (centres unmarked) | 1.73
O=C1CC(=O)CC(c2ccccc2Cl)C1 | 13.3
CC(=O)Nc1ccc(C)c(NS(=O)(=O)c2cccc(C(F)(F)F)c2)c1 | 14.2
O=C(CNc1cccc(S(=O)(=O)N2CCOCC2)c1)Nc1ccccc1F | 16.1
Cn1c(CC(=O)Nc2ccccc2Cl)nnc1SCC(=O)Nc1nncs1 | 10.2
O=C(O)c1ccc(OCC(O)Cn2cnc3ccccc32)cc1 (centres unmarked) | 12.2
COc1cccc(CCNC(=O)c2ccc(C#N)cc2)c1 | 8.19
